In PubChem BioAssay AID1768 (National Center for Advancing Translational Sciences (NCATS), 2009):
The campaign covered roughly 270,000 compounds. About 620 (0.23%) were called active. The shares of active, inactive and inconclusive entries below differ from those in the screen. Calls come from the whole dose curve; as a rule, active = well fitted inhibition curve with a large enough effect in the polarisation, with a control signal flat (not every such curve was filed as active); inconclusive = small, poorly fitted or top-dose-only effect, or effect the other way, or a change in a side signal; inactive = no such curve, though single readings can be large or run the other way; the % refers to the polarisation. Potencies beside an inconclusive call are fits to weak or partial responses and may not hold up. A note “side channel” means that the fit belongs to a control or component signal, not to the main read-out.

Target: Menin (Homo sapiens) (UniProt O00255)
Sequence of UniProt O00255 (O00255 whole entry, looked up): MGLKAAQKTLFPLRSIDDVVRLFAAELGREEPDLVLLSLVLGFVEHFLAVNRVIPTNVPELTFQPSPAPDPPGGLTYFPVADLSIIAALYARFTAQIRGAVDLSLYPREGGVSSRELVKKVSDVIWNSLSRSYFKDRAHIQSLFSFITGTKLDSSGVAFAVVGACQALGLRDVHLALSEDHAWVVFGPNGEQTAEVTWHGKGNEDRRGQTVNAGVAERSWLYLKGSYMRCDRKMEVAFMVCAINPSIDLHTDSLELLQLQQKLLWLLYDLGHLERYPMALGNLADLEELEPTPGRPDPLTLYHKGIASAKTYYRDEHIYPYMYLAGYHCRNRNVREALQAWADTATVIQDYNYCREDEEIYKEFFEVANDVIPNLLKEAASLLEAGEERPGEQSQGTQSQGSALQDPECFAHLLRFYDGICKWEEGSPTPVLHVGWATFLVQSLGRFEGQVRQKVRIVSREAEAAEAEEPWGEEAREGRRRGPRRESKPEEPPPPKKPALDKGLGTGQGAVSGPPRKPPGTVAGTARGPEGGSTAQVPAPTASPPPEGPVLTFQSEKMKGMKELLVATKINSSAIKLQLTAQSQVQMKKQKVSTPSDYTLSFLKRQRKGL
Experiment: qHTS Assay for Inhibitors Targeting the Menin-MLL Interaction in MLL Related Leukemias: Competition With Texas Red Labeled MLL-derived Mutant Peptide; for FP activity change, negative = inhibition: % of control where 0% means no effect
Conditions: fluorescence polarization; FP activity change, negative = inhibition: at 61.6 µM (top of the series)
Potency is the fitted concentration of half-maximal effect; tags give direction and shape of the fitted curve or compound fluorescence and quenching.

Structure (SMILES) | Potency | FP activity change, negative = inhibition
Cc1ccnc(NC(=O)Cc2ccc(-c3ccccc3)cc2)c1 | inconclusive: 28.2 µM [quencher, side channel, single point] | 
Cc1ccccc1NC(=O)Cn1cc(C(=O)C2CC2)c2ccccc21 | inconclusive: 39.8 µM [inhibitor, single point] | 
Cc1cc2c(ncn2C)c(NS(=O)(=O)c2ccccc2Cl)c1C | inconclusive: 35.5 µM [inhibitor, partial curve] | 
Cc1ccc2nc(-c3cccc(NS(C)(=O)=O)c3)cc(-c3ccccc3)c2c1 |  | inactive: 16.4%
CCOc1cc(Br)c(Br)c(C=Nc2ccc(NC(C)=O)cc2)c1O | inconclusive: 39.8 µM [fluorescent, side channel, single point] | 
NC(=O)C1(NC(=O)[C@@H]2CC3(CC(c4cccc(NC(=O)c5cc([N+](=O)[O-])cc([N+](=O)[O-])c5)c4)=NO3)CN2C(=O)c2ccccc2)CC1 (some centres undefined) | inconclusive: 14.1 µM [quencher, side channel, partial curve] | 
Cc1cc(C(=O)N/N=C/C=C/c2ccc(Br)cc2)n[nH]1 | inconclusive: 39.8 µM [inhibitor, single point] | 
Cc1ccc(-n2nnc3c(=O)n(Cc4ccccn4)cnc32)cc1C | inconclusive: 35.5 µM [fluorescent, side channel, single point] | 
Cc1ccc(S(=O)(=O)NC2=NCN(C(C)C)CN2)cc1 | inconclusive: 15.8 µM [inhibitor, partial curve] | 
O=C(O)c1cccc(N2C(=O)/C(=C/c3ccc([N+](=O)[O-])cc3)C=C2c2ccccc2)c1 | inconclusive: 28.2 µM [fluorescent, side channel, partial curve] | 
COc1cccc(NC(=O)CN2CCN(S(=O)(=O)c3ccc(C(C)C)cc3)CC2)c1 | inconclusive: 3.16 µM [inhibitor, full curve] | 
c1ccc(-n2ncc3c2ncn2cnnc32)cc1 | inconclusive: 2.82 µM [inhibitor, single point] | 
COCCn1c(C)c(C)c(S(=O)(=O)c2ccccc2)c1N | inconclusive: 28.2 µM [fluorescent, partial curve] | 
FC(F)(F)c1cccc(NC(=S)NNC(=S)NCc2ccccc2)c1 | inconclusive: 11.2 µM [quencher, side channel, partial curve] | 
Cc1cccnc1NC(=O)Cn1nc([N+](=O)[O-])cc1C | inconclusive: 11.2 µM [inhibitor, partial curve] | 
COc1ccc(NC(=O)c2cc3sccc3n2Cc2ccc(F)cc2)cc1OC | inconclusive: 6.31 µM [quencher, side channel, partial curve] | 
CC(=O)O[C@]1(C(C)=O)CC[C@H]2[C@@H]3C[C@H](C)C4=CC(=O)CC[C@]4(C)[C@H]3CC[C@@]21C |  | inactive: -20.1%
O=C(CCC(=O)Nc1ccc(Br)cc1)N/N=C/c1ccccc1O | inconclusive: 39.8 µM [fluorescent, side channel, single point] | 
O=C(CSc1ccccn1)N1CCc2ccccc21 | inconclusive: 39.8 µM [fluorescent, side channel, single point] | 
O=C(Nc1cccc(NC(=O)c2ccco2)c1)c1cccc(Br)c1 | inconclusive: 25.1 µM [quencher, side channel, single point] | 

Structure (SMILES) | Potency | FP activity change, negative = inhibition
N#CCC(=O)Nc1ncc(Cc2ccccc2Cl)s1 | inconclusive: 31.6 µM [quencher, side channel, single point] | 
O=C(Cc1cccs1)N/N=C/C(Br)=C/c1ccccc1 | inconclusive: 39.8 µM [fluorescent, side channel, single point] | 
COc1ccc(CCNCC(=O)Nc2ccc(OC(F)(F)F)cc2)cc1OC |  | inactive: -7.02%
NS(=O)(=O)c1ccc(CCNC2CC(=O)N(Cc3ccccc3)C2=O)cc1 (centres undefined) | inconclusive: 8.91 µM [inhibitor, single point] | 
CCN(CC)c1ccc(Nc2nc(Cl)ncc2Br)cc1 | inconclusive: 10 µM [quencher, side channel, partial curve] | 
CCOC(=O)c1sc(=S)n(-c2ccccc2)c1N | inconclusive: 39.8 µM [inhibitor, single point] | 
Cc1ccc(/C=N/NC(=O)C(NC(=O)c2ccccc2)c2n[nH]c(=O)c3ccccc23)cc1 (centres undefined) | inconclusive: 5.01 µM [inhibitor, single point] | 
CCn1c(SCC(=O)c2ccc(F)cc2)nnc1-c1ccoc1C | inconclusive: 5.62 µM [inhibitor, partial curve] | 
O=C(Cc1ccccc1)NC(c1ccco1)c1c(O)ccc2ccccc12 (centres undefined) | inconclusive: 25.1 µM [quencher, side channel, partial curve] | 
O=C(Nc1cccc(-c2cnc3ccccc3n2)c1)c1ccc(Cl)cc1 | inconclusive: 3.98 µM [quencher, side channel, partial curve] | 
COc1ccc(CCNCC(=O)Nc2ccc(C(=O)N3CCCCC3)cc2)cc1 | inconclusive: 10 µM [fluorescent, side channel, partial curve] | 
O=C(Nc1ncc(Cc2ccccc2)s1)c1cccs1 | inconclusive: 25.1 µM [quencher, side channel, partial curve] | 
COc1ccccc1Nc1nc(C)c(C(=O)Nc2ccccc2)s1 | inconclusive: 28.2 µM [quencher, side channel, single point] | 
CCN(CC)c1nc(N)c2c(N)nc3c(c2c1C#N)CC(c1ccccc1)O3 (centres undefined) |  | inactive: 2.41%
CCOC(=O)c1c(NC(=O)CSc2nnnn2C)sc(C)c1C | inconclusive: 0.708 µM [inhibitor, full curve, poor fit] | 
CCN1CCc2c(C#N)c(N3CCCCC3)nc(N3CCOCC3)c2C1 |  | inactive: -9.57%
COc1ccc(C2=NOC(C(=O)Nc3ccc4c(c3)OCCO4)C2)c(OC)c1 (centres undefined) | inconclusive: 0.631 µM [inhibitor, full curve, poor fit] | 
Cc1snc(S(=O)(=O)/C(C#N)=N/Nc2cccc(C(F)(F)F)c2)c1C#N | inconclusive: 25.1 µM [quencher, side channel, single point] | 
Cc1cccc(NC(=O)Cn2cnc3c(oc4nc5c(cc43)COC(C)(C)C5)c2=O)c1 | inconclusive: 39.8 µM [fluorescent, side channel, single point] | 
Cc1ccc(C(=O)NCCSc2c(C)[nH]c3ccccc23)cc1[N+](=O)[O-] | inconclusive: 25.1 µM [quencher, partial curve] | 

Structure (SMILES) | Potency | FP activity change, negative = inhibition
Cc1ccc(C(=O)OCC(=O)c2c[nH]c3ccccc23)cc1S(=O)(=O)N1CCCCC1 | inconclusive: 11.2 µM [quencher, side channel, partial curve, poor fit] | 
COc1ccccc1N1CCN(C(=O)c2ccc3[nH]c4c(c3c2)CC(C)CC4)CC1 (centres undefined) | inconclusive: 5.01 µM [fluorescent, side channel, full curve, poor fit] | 
C=CCN(c1ccccc1OC)S(=O)(=O)c1cccc(C(=O)OCC(=O)c2c[nH]c3ccccc23)c1 | inconclusive: 20 µM [inhibitor, single point] | 
CN(Cc1ccccc1)S(=O)(=O)c1ccc(C(=O)Nc2nnc(C3CC3)o2)cc1 | inconclusive: 28.2 µM [quencher, side channel, single point] | 
O=C(Nc1ccc(-c2noc(CCc3ccccc3)n2)cc1)c1ccco1 | inconclusive: 28.2 µM [quencher, side channel, partial curve] | 
CCOc1ccccc1-n1c(SCC(N)=O)nnc1-c1ccc(O)cc1 |  | inactive: 0.596%
Cc1ccccc1/C=N/Nc1nc2ccccc2[nH]1 |  | inactive: 4.28%
Cc1cccc(NC(=S)NCc2ccc3[nH]c4c(c3c2)CCCC4)c1 | inconclusive: 31.6 µM [quencher, side channel, single point] | 
O=C(/C=C/c1ccc([N+](=O)[O-])cc1)NCc1ccc2c(c1)OCO2 | inconclusive: 25.1 µM [quencher, side channel, single point] | 
CCN(CC)CCCn1c(=S)[nH]c2cc(Cl)ccc2c1=O | inconclusive: 5.01 µM [inhibitor, full curve, poor fit] | 
Nc1ccc2[nH]ncc2c1 | inconclusive: 35.5 µM [quencher, side channel, single point] | 
C=CCC1(O)CCOc2ccccc21 (centres undefined) |  | inactive: 0.71%
O=C(O)c1cccc(Nc2nc(N3CCOCC3)nc(N3CCOCC3)n2)c1 | inconclusive: 7.94 µM [inhibitor, partial curve, poor fit] | 
O=C(N/N=C(\c1ccccc1)c1ccccn1)c1cccc([N+](=O)[O-])c1 | inconclusive: 15.8 µM [inhibitor, single point] | 
Cc1ccc(NC(=O)/C(Cl)=C\c2ccccc2)cc1 | inconclusive: 31.6 µM [quencher, side channel, single point] | 
COc1cc(/C=C2/C(C)=C(C#N)c3nc(N)c(C#N)c(C)c32)ccc1OCC(=O)O | inconclusive: 35.5 µM [fluorescent, side channel, single point] | 
S=c1[nH]nc(Cc2cccs2)n1-c1ccccc1 | inconclusive: 17.8 µM [inhibitor, single point] | 
Cc1ccc2nc(C)c3c(c2c1)OC(C(C)(Cl)Br)C3 (centres undefined) | inconclusive: 3.16 µM [fluorescent, side channel, partial curve] | 
CN1C(=O)/C(=C\c2cc(N=Nc3ccccc3)ccc2O)SC1=S | inconclusive: 3.55 µM [fluorescent, side channel, full curve] | 
